Experimental data from PubChem BioAssay AID488969 (Vanderbilt High Throughput Screening Facility, 2010).
Over roughly 110,000 compounds, “z-score” has its median near -0.1; the highest 2% begin near 2. The list shows a part of the results.

Target: Metabotropic glutamate receptor 8 (Rattus norvegicus) (UniProt P70579)
Assay: mGluR8 Gi/Go-coupled signaling modulation – cell-based, rat, thallium flux, HTS, primary screen (AID 488969)
Settings: HEK293 rat mGluR8, GIRK (G protein-gated inwardly rectifying potassium channel) thallium flux, FluoZin2; at 10 µM; stronger effect = higher value; submaximal glutamate (EC20) added with thallium

UniProt P70579, sequence (P70579 whole entry, looked up): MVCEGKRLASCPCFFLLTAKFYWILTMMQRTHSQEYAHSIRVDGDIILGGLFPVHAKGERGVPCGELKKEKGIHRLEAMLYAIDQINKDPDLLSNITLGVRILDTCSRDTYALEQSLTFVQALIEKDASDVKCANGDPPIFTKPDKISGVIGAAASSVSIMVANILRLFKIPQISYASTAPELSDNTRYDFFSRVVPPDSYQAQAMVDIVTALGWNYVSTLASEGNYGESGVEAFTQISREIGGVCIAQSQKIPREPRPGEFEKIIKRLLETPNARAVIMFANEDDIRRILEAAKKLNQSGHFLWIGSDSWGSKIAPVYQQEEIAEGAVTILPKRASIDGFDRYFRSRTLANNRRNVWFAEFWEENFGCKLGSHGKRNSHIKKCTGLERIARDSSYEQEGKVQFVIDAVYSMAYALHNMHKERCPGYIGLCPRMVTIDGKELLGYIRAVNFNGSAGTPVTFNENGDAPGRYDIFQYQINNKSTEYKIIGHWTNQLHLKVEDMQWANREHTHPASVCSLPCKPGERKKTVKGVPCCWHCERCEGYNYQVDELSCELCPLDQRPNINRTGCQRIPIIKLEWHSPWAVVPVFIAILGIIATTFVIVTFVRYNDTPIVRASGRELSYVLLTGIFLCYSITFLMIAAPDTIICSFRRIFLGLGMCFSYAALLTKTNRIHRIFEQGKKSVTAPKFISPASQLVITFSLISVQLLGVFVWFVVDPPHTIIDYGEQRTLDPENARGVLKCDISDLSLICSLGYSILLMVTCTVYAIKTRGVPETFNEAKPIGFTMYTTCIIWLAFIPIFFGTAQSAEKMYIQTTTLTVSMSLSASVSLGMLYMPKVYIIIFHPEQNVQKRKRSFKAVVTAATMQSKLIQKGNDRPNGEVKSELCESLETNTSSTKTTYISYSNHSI

Row | Structure (SMILES) | z-score
1 | COc1ccc(NC(=O)CSc2c(C)n[nH]c2C)cc1 | 0.316
2 | COc1c(Cl)cc(Cl)cc1CNCCNCCO | 0.598
3 | Cc1nonc1NCn1nnc2ccccc21 | -0.0556
4 | O=C(O)CNC(=S)N(Cc1cccs1)C1CCCCC1 | -0.0527
5 | Cc1cc(SC(C)C(=O)NCC(=O)Nc2ccc(F)c(F)c2F)nc2ccccc12 (stereo not given) | -0.101
6 | O=C(NCc1ccccc1)C(c1cccs1)N(Cc1cccs1)C(=O)c1cnccn1 (stereo not given) | -0.142
7 | Cc1ccc(Cn2c(SCc3cccnc3)nc3c2c(=O)n(C)c(=O)n3C)cc1 | -0.0321
8 | CN(c1ccccc1)S(=O)(=O)c1ccc(NC(=S)NC(=O)C2CC2)cc1 | -0.123
9 | O=C(/C=C\c1cn(-c2ccccc2)nc1-c1ccccc1)Nc1nccs1 | -0.18
10 | O=C(Nc1ccc2c(c1)ncn2C1CCCCC1)c1ccco1 | 0.458
11 | COc1cccc(N(C(=O)CS(=O)CC(=O)Nc2ccc(F)cc2)C(C(=O)NC2CCCCC2)c2cccs2)c1 (stereo not given) | -0.0149
12 | c1cnn(-c2nc(N3CCOCC3)nc(N3CCOCC3)n2)c1 | 0.839
13 | COc1nc(OC)nc(N2CCC(C(=O)NC3CCCCCC3)CC2)n1 | 0.175
14 | COc1ccc(OC)c(C(=O)CSc2nnc(-c3cccnc3)n2C)c1 | -0.347
15 | O=C(CCc1ccc(Oc2cc([N+](=O)[O-])cc([N+](=O)[O-])c2)cc1)Nc1cccc(Cl)c1 | 0.199
16 | CC1=CC(C)(C)N2C(=O)C3(N=C(N)NC(Nc4ccccc4)=N3)c3cc(C)cc1c32 (stereo not given) | 0.64
17 | c1c2c(cc3sc(N4CCCCC4)nc13)OCO2 | 0.198
18 | C=CCOc1cc(C)nc(-c2ccccc2O)n1 | 0.321
19 | Cc1nn(C)cc1CNC(=O)Nc1ccc(Cl)cc1 | -0.35
20 | CN(C)c1ccc(NC(=O)CSCc2nc3c(nnn3Cc3ccc(F)cc3)c(=O)[nH]2)cc1 | -0.232
21 | CSc1nc(N2CCOCC2)c2c(c1C#N)CC(C)(C)OC2 | 2.16
22 | CC(C)(C)NC(=O)Cn1ccc(=N)c2ccccc21 | 0.117
23 | CC(Cl)C(=O)c1c(N)n(C)c(=O)n(C)c1=O (stereo not given) | 0.258
24 | COc1ccc(NC(=O)COC(=O)CNS(=O)(=O)c2ccc(F)c(F)c2F)cc1OC | -0.157
25 | COCCCNC(=O)COc1ccc(Br)cc1Cl | -0.0923
26 | CC1=NC(=O)C(N=Nc2ccccc2C)N1c1ccccc1 (stereo not given) | 0.0289
27 | CCOC(=O)C1=C(C)NC(SC)=NC1c1ccc(OC)cc1 (stereo not given) | -0.294
28 | Cc1ccccc1Cn1nc(C)c(NC(=O)C2c3ccccc3Oc3ccccc32)c1C | 0.413

Row | Structure (SMILES) | z-score
29 | COc1cccc(NC(=O)C(OC(=O)/C=C/c2ccc3c(c2)OCO3)c2ccccc2)c1 (stereo not given) | -0.0384
30 | Cc1ccc(OCc2nnc(SCC(=O)Nc3ccc4c(c3)OCO4)n2C)cc1 | 1.73
31 | CCOC(=O)c1c(CSc2ccc(C)cc2)oc2ccc(O)cc12 | 0.0857
32 | COc1cc(CC(CC(=O)O)CC(C)OCc2ccccc2)cc(OC)c1 (stereo not given) | -0.0501
33 | O=C(NCc1ccco1)c1cc(S(=O)(=O)N2CCCc3ccccc32)ccc1Cl | -0.182
34 | COCCOC(=O)C1=C(C)NC(=O)NC1C1CC=CCC1 (stereo not given) | 0.391
35 | CC(=O)N1CC(=O)N(OCc2ccccc2)C1c1ccc(Cl)cc1Cl (stereo not given) | -0.0814
36 | Cc1cccc(OC(=O)c2cn(C)nc2C(F)(F)F)c1C | -0.192
37 | Cc1nn(C)c(C)c1S(=O)(=O)N(CC(=O)N1CCc2ccccc21)c1ccc(C(C)C)cc1 | -0.0519
38 | O=C(CSc1nnc(-c2ccco2)c(-c2ccco2)n1)Nc1ccccc1 | -0.968
39 | CC(NC(=O)C1CCC(CNc2c(N3CCOCC3)c(=O)c2=O)CC1)c1ccccc1 (stereo not given) | 1.94
40 | COC(=O)c1[nH]c(C)c(/C(O)=C2\C(=O)C(=O)N(CCCN3CCOCC3)C2c2ccccn2)c1C (stereo not given) | 0.103
41 | O=C(N[C@@H](Cc1ccccc1)C(=O)NC1CCCCCC1)c1ccco1 | -0.252
42 | Cc1ccc(C2(CC(=O)Nc3nccs3)CCOC(C(C)C)C2)cc1 (stereo not given) | -1.54
43 | OCCNCc1cc(Br)ccc1OCc1ccccc1Cl | 1.06
44 | COc1ccc(C(=O)/C=C/Nc2ccc(C)cn2)cc1OC | 0.468
45 | CN1c2ccccc2C(C)(C)C12CC(c1cccc(S(=O)(=O)N3CCCC3)c1)=NO2 (stereo not given) | 0.282
46 | Cc1ccc(-c2noc(CSc3nnc(-c4cccs4)n3C)n2)cc1 | -0.132
47 | CCC1(c2ccccc2)NC(=O)N(CC(=O)N2CCN(S(=O)(=O)c3ccccc3)CC2)C1=O (stereo not given) | -0.344
48 | CCOC(=O)C(NC(=O)Nc1ncccn1)(Oc1ccccc1)C(F)(F)F (stereo not given) | 0.153
49 | Cc1ccc(/C=C2/SC(=S)N(CCC(=O)N3CCN(c4ccccc4)CC3)C2=O)cc1 | -0.356
50 | COCCCNC(=O)COc1cc(C)c(Cl)c(C)c1 | -1.54
51 | OCc1cn(-c2ccccc2)nc1-c1cccnc1 | -0.372
52 | CCS(=O)(=O)N1CCC(C(=O)NCc2ccc(F)cc2)CC1 | 0.147
53 | CSc1nc(Oc2ccc(C)cc2)cc(C(F)(F)F)n1 | -0.0931
54 | Cc1noc(C)c1S(=O)(=O)N1CCN(Cc2ccc3c(c2)OCO3)CC1 | 0.0601
55 | CC(C)C(C(=O)O)N1C(=O)/C(=C/C=C/c2ccco2)SC1=S (stereo not given) | -0.321
